Screen size: about 52,000 compounds; about 1,700 (3.3%) were called active. Cut-off read from the data, not from the text of the source: active = survival mostly below about 52% (no sharp cut-off); inactive = mostly above about 56%. The list shows a part of the results.

This assay has as its system Wild type. Kind of assay: growth inhibition of S. aureus wild type versus tarO mutant, primary screen, teichoic acid synthesis inhibitors, RN4220, OD600 (AID 463173). The note with it: S. aureus RN4220 wild type/DeltatarO growth, OD600, 18 h, active compounds read low, screened at 18.75 µg/mL (by protocol).
For `COc1ccc(-c2nc(CSCC(=O)N3CCN(c4ccccc4F)CC3)c(C)o2)cc1`, the survival is inactive: 24%.

Regarding `Cc1cccc(OC(=O)c2snnc2C)c1`, the survival was inactive: 83%.

Turning to `Cc1cccc(C)c1Nc1c(-c2ccccn2)nc2ccc(Cl)cn12`, the survival was inactive: 131%.

As for `O=C(NCc1ccccc1)NC1COc2ccccc2C1` (stereo not given), the survival was inactive: 82%.

`Cn1cc(S(=O)(=O)N2CCCCCC2)cc1C(=O)NCc1ccc(F)cc1`: the survival is inactive: 71%.

Consider `CCOc1ccccc1NC(=O)CSc1ncc2c(n1)-c1ccccc1N(CC)S2(=O)=O`, for which the survival is inactive: 81%.

With `COc1ccc(CNCc2ccc(C(=O)O)s2)cc1`, the survival is inactive: 86%.

`COCCn1c(-c2ccccc2)n[nH]c1=S`: the survival was inactive: 106%.

Turning to `O=C(NCCc1ccc(Cl)cc1)c1ccc(Nc2nc3ccccc3n3nnnc23)cc1`, the survival was inactive: 81%.

On to `COc1ccc(NC(=O)c2nc(SCc3ccc(F)cc3)ncc2Cl)cc1`, for which the survival was inactive: 85%.

Take `CCOc1ccc(NC(=O)c2sc(-n3nc(C)c(CCC(C)C)c3C)nc2C)cc1`: the survival is inactive: 123%.

As to `Cc1cccc(NC(=O)C(=O)NCCCN2CCOCC2)c1`, the survival is inactive: 123%.

`Cc1ccc(-n2ncc3c(NCCc4ccc(S(N)(=O)=O)cc4)ncnc32)cc1`: the survival is inactive: 71%.

For the compound `Cc1ccccc1Nc1c(-c2ccc(N3CCOCC3)cc2)nc2cccc(C)n12`, the survival is inactive: 59%.

Regarding `CCC(C)Nc1nc2c(c(=O)[nH]c(=O)n2C)n1Cc1ccc(F)cc1` (stereo not given), the survival is inactive: 69%.

As to `CCOc1ccccc1CNC(=O)c1ccc2nc(N3CCC(C)CC3)sc2c1`, the survival is inactive: 84%.

`C=Cc1ccc(Cn2c(C(=O)O)c(CNCCc3ccco3)c3ccc(C)cc32)cc1`: the survival is inactive: 131%.

In the case of `COC(=O)c1cc2sccc2n1Cc1nc(-c2cccc(Cl)c2)oc1C`, the survival is inactive: 61%.

Regarding `CC1=C(c2ccc(C)cc2)S(=O)(=O)NC1=NCc1ccccc1Cl`, the survival is inactive: 81%.

`CCCCOC(=O)CSc1ncnc2sc3c(c12)CCC(C)C3` (stereo not given): the survival was active: 15%.

Turning to `Cc1ccc2oc(-c3cccc(NC(=O)c4cccc5c(Cl)cccc45)c3)nc2c1`, the survival is inactive: 70%.

Regarding `CCCCn1c(CCCNC(=O)c2cccc(C)c2)nc2ccccc21`, the survival is inactive: 73%.

Regarding `Cc1nc2cc(-c3cccc(F)c3)nn2c(C)c1CCC(=O)Nc1ccccc1C(N)=O`, the survival is inactive: 73%.

As to `Cc1cccc(NC(=O)c2ccc(CN3CC(=O)N4CCCCC4C3=O)cc2)c1C` (stereo not given), the survival is inactive: 64%.

With `COCCNC(=O)Cn1nc(-c2ccc(C)cc2)c2ccccc2c1=O`, the survival was inactive: 73%.

`COc1ccc(CNc2nc(-c3ccc(Cl)cc3)cc(C(F)(F)F)n2)cc1`: the survival is active: -4%.

On to `COc1cccc(Cn2nnc3c(=O)[nH]c(C4CCCN(C(=O)c5ccccc5Cl)C4)nc32)c1` (stereo not given), for which the survival was inactive: 104%.

On to `Cc1cc(N2CCN(c3cccc(C)c3C)CC2)nc(-c2ccccc2)n1`, for which the survival was inactive: 90%.

As to `CCc1ccccc1NC(=O)COCc1cc(-c2ccco2)on1`, the survival is inactive: 65%.

For `Cc1cccc2cc3c(nc12)SC(=NCc1ccco1)N(Cc1cccs1)C3`, the survival is inactive: 104%.

As for `COC(=O)c1c(-c2ccc(Cl)cc2)noc1N1CCN(c2ccccc2OC)CC1`, the survival is inactive: 70%.

With `COc1ccccc1S(=O)(=O)Cc1ccc(C(=O)N2CCN(c3cc(Cl)ccc3C)CC2)o1`, the survival is inactive: 63%.

For the compound `Cc1cc(C)c(Cn2c(=O)n(CCC(=O)NCc3ccc4c(c3)OCO4)c(=O)c3ccccc32)c(C)c1`, the survival was inactive: 92%.

`O=C(NCCc1ccccc1)c1ccc2nc(CCc3ccccc3)oc2c1`: the survival is active: 0%.

With `CCOc1ccc2c(c1)c(=O)c(C(=O)c1ccc(CC)cc1)cn2CC(=O)Nc1cccc(Cl)c1`, the survival is inactive: 125%.

For the compound `COc1cc(C2CC(=O)Nc3ccc4ccccc4c32)ccc1OC(=O)C(C)C` (stereo not given), the survival was inactive: 64%.

Take `Cc1ccc2occ(CC(=O)N(Cc3ccc(Cl)cc3)Cc3ccco3)c2c1`: the survival is inactive: 109%.

On to `Cc1ccc(N2C(=O)[C@@H]3CSC(c4ccc(Cl)cc4)N3C2=O)cc1` (stereo not given in full), for which the survival is inactive: 82%.

Take `C#CCn1c(O)c(N=NC(=O)c2ccncc2)c2cc(Br)ccc21`: the survival is inactive: 110%.

`CCOc1ccc(OCC)c(NC(=O)C2CCN(S(=O)(=O)c3ccc4c(c3)CC(C)N4C(C)=O)CC2)c1` (stereo not given): the survival is inactive: 121%.

Consider `O=C(c1ccco1)N(Cc1cccs1)c1ccc(F)cc1`, for which the survival is inactive: 107%.

Regarding `Cc1cc(O)c(C(c2ccccc2)N2CCN(c3ccc(F)cc3)CC2)c(=O)n1Cc1ccco1` (stereo not given), the survival was inactive: 60%.

Regarding `Cc1ccc(-n2c(CCC(=O)O)ccc2-c2cccs2)cc1Cl`, the survival is inactive: 107%.

With `CCc1ccccc1NC(=O)c1cc2nc(-c3ccc(Br)cc3)cc(C(F)(F)F)n2n1`, the survival is inactive: 91%.

In the case of `CC(C)c1nc2ccc(C(=O)NCc3ccccc3Br)cc2o1`, the survival was inactive: 60%.

Regarding `Cc1cccc(OCc2cc(=O)n3c4c(sc3n2)CCCC4)c1C`, the survival is inactive: 128%.

On to `CCc1ccc(C(=O)CC2(O)C(=O)N(Cc3ccc(C)cc3)c3ccccc32)cc1` (stereo not given), for which the survival was inactive: 48%.

On to `O=C(NCC1CCN(Cc2cccc(Cl)c2)CC1)Nc1ccc(F)c(Cl)c1`, for which the survival is active: 14%.

As to `COc1cccc(CNC(=O)c2ccc(-n3c(C)cc4c3CCCC4)cc2)c1`, the survival is inactive: 68%.

On to `Cc1noc(-c2ccccc2OCC(=O)Nc2ccccc2[N+](=O)[O-])n1`, for which the survival is inactive: 67%.

On to `COc1ccc(CNC(=O)c2sc3nc[nH]c(=O)c3c2C)cc1`, for which the survival is inactive: 70%.

Turning to `CCOc1ccccc1N1CC(c2nc3ccccc3n2CCCOc2ccc(OC)cc2)CC1=O` (stereo not given), the survival was inactive: 89%.

Consider `CC(C)OCCCN1C(=O)c2[nH]nc(-c3ccccc3O)c2C1c1ccccc1F` (stereo not given), for which the survival is inactive: 70%.

On to `O=C(Nc1ccc(S(=O)(=O)c2ccc(NC(=O)c3ccco3)cc2)cc1)c1ccco1`, for which the survival is inactive: 115%.

Take `COc1ccc2cc(CNc3ccc(C)cc3)c(=O)n(CC(=O)Nc3ccc(C)cc3Cl)c2c1`: the survival was inactive: 74%.

As to `CCN1CCSc2ccc(C(=O)NCc3cccc(Br)c3)cc21`, the survival was inactive: 86%.

For the compound `CCOc1ccc(NC(=O)CSc2c3c(nc4ccccc24)CCCC3)cc1`, the survival was inactive: 87%.

Turning to `CCCCOc1ccccc1C(=O)N(Cc1sccc1C)C1CCS(=O)(=O)C1` (stereo not given), the survival is inactive: 85%.

For the compound `Cc1ccc(-c2cn3nc(N4CCCC(C(=O)NCc5ccc(F)cc5)C4)sc3n2)cc1` (stereo not given), the survival is inactive: 88%.

With `CC(C)(C)c1ccc(C(=O)N2CCCC(c3nc4c(nnn4Cc4cccc(F)c4)c(=O)[nH]3)C2)cc1` (stereo not given), the survival is inactive: 17%.

On to `CCn1c(SC)nnc1C1CCCN(CC(=O)NCc2ccc3c(c2)OCO3)C1` (stereo not given), for which the survival was inactive: 116%.

Consider `Cc1cc(C)cc(NC(=O)Cn2c(=O)n(-c3ccc(C)c(C)c3)c(=O)c3oc4ccccc4c32)c1`, for which the survival is inactive: 80%.

In the case of `COC(=O)c1ccc(NC(=O)CCn2cnnn2)c(C)c1`, the survival was inactive: 75%.

Regarding `Cc1ccc2nc(CN3CCN(S(=O)(=O)c4ccc(C(C)C)cc4)CC3)oc2c1`, the survival is inactive: 90%.

Take `CCN1C=CC2=C(C#N)C(N)C(C#N)(C#N)C(c3ccccc3C(F)(F)F)C2C1` (stereo not given): the survival is inactive: 105%.

As to `Cc1ccc2occ(CC(=O)Nc3ccc(S(=O)(=O)N4CCCC(C)C4)cc3)c2c1` (stereo not given), the survival was inactive: 65%.

As for `COc1ccc(NC(=O)C2CCN(C(=O)N3CCOc4ccccc43)CC2)cc1`, the survival was inactive: 84%.

`Cc1ccccc1Cn1nnc2c(=O)[nH]c(C3CCN(C(=O)c4ccccc4Cl)CC3)nc21`: the survival is inactive: 53%.

As to `CC(C)C(NS(=O)(=O)c1ccccc1)C(C)C`, the survival is inactive: 102%.

As to `COc1ccc(NC(=O)CN2C(=O)CSc3ccc(S(=O)(=O)N(C)C)cc32)cc1Cl`, the survival was inactive: 83%.

For the compound `O=C(Nc1ccc(Cl)c(C(F)(F)F)c1)c1ccc2c(c1)CCN2S(=O)(=O)c1ccccc1`, the survival was inactive: 78%.

Consider `Cc1ccc(-n2ncc(C(=O)NCc3ccccn3)c2C2CCN(C(=O)OC(C)(C)C)CC2)c(C)c1`, for which the survival was inactive: 45%.

Consider `COc1ccc(CNC(=O)CCCn2c(=O)c3cccn3c3ccc(F)cc32)cc1OC`, for which the survival is inactive: 58%.

`O=c1c2cc3c(cc2n(Cc2ccccc2)c(=O)n1Cc1nc(-c2ccccc2)no1)OCO3`: the survival was inactive: 112%.

As for `COc1ccc(-c2noc(N3CCC(C(=O)Nc4ccc(OC)c(OC)c4)CC3)n2)cc1`, the survival is inactive: 103%.

In the case of `COCCCNC(=O)C(C)n1c2ccccc2c2cnn(C)c(=O)c21` (stereo not given), the survival was inactive: 85%.

Consider `COc1ccc(NC(=O)N2CCN(S(=O)(=O)c3ccc4c(ccn4C)c3)CC2)cc1OC`, for which the survival is inactive: 129%.

For the compound `CCC1CN(C(=O)NCc2ccccc2)c2cc(C)ccc2O1` (stereo not given), the survival is inactive: 85%.

Consider `CCCSc1nc(-c2ccc(OC)cc2)cc(-c2ccccc2OC)c1C#N`, for which the survival was inactive: 65%.

`Cc1cccc(C)c1NC(=O)CN(Cc1ccc(Br)cc1)S(=O)(=O)c1ccccc1`: the survival was inactive: 71%.

`COc1ccc(Br)cc1CNC(=O)c1cc(=O)[nH]c2ccc(S(=O)(=O)N3CCCCC3)cc12`: the survival is inactive: 72%.

For the compound `CN(C)c1ccc(C(CNC(=O)c2cccc(C(F)(F)F)c2)N2CCCC2)cc1` (stereo not given), the survival was inactive: 99%.

In the case of `COc1ccc(Cl)cc1Nc1cc(C)nc2nc(-c3ccccc3C)nn12`, the survival was inactive: 97%.

`CCOc1ccc(NC(=O)C2CCN(S(=O)(=O)c3c(C)noc3/C=C/c3c(C)cc(C)cc3C)CC2)cc1`: the survival was inactive: 68%.

Regarding `CCCC(=O)Nc1cccc(-c2cn3cccnc3n2)c1`, the survival is inactive: 53%.

Consider `Cc1ccc(CNc2ncnc3c2c(-c2ccccc2)cn3-c2ccccc2)cc1`, for which the survival is inactive: 97%.

Take `CCOC(=O)c1ccc(NS(=O)(=O)c2ccc3c(c2)OCCO3)cc1`: the survival is inactive: 77%.

With `COc1ccc(OC)c(CCNC(=O)Cn2ccc3cc(S(=O)(=O)N4CCCCC4)ccc32)c1`, the survival is inactive: 87%.

As to `c1ccc2c(c1)c1ccccc1n2CN1CCOCC1`, the survival was inactive: 114%.

Take `CCN(CC)c1ccc(NC(=O)c2sc3ccccc3c2Cl)cc1`: the survival is active: 15%.

The values above are taken from PubChem BioAssay AID463173 (ICCB-Longwood Screening Facility, Harvard Medical School, 2010).
